The whole screen tested about 310,000 compounds, of which about 2,200 (0.71%) showed an effect of 50% or more. The effect is printed as a negative number. Some of the results follow.
These compounds were tested against human ether-à-go-go-related gene (hERG) potassium channel (human, UniProt Q12809) (assay: primary screen, population patch clamp on CHO cells stably expressing hERG).
Sequence of human ether-à-go-go-related gene (hERG) potassium channel (Q12809 whole entry, looked up): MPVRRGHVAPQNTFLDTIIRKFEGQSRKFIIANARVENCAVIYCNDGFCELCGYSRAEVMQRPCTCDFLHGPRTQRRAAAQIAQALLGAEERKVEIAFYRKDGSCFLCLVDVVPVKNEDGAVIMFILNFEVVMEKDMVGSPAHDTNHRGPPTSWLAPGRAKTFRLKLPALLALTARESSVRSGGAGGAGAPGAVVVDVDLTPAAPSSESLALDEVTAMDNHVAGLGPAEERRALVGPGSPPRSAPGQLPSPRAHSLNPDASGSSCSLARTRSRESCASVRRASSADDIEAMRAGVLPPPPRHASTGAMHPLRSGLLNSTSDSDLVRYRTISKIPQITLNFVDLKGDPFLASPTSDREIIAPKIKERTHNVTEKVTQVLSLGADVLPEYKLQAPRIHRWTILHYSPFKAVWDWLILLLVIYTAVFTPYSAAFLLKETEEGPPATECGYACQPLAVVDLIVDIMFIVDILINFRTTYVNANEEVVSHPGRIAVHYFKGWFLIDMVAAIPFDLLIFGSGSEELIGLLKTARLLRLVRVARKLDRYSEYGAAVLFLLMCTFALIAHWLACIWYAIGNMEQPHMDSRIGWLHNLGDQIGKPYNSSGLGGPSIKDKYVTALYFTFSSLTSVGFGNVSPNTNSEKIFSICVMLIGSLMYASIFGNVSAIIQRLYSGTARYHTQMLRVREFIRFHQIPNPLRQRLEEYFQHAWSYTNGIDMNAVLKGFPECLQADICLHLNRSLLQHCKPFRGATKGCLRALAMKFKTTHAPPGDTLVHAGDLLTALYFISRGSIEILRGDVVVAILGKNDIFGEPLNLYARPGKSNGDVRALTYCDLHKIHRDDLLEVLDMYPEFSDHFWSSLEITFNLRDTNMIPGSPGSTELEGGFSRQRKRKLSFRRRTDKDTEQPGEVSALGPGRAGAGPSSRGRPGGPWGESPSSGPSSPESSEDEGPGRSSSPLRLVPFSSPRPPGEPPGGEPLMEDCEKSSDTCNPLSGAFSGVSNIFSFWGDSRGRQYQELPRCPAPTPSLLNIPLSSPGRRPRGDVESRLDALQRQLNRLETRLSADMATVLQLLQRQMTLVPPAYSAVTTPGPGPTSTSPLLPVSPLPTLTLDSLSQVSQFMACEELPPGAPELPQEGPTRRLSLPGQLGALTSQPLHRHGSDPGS

| SMILES | hERG current change (%, negative = inhibition) at 1uM |
| --- | --- |
| Cc1ccccc1OCC(=O)N1CCc2ccccc2C1 | 15.1% |
| CN(C)CCN(C(=O)c1ccc2c(c1)OCCO2)c1nc2c(Cl)cccc2s1.Cl | 0.945% |
| CC(c1ccccc1)N1CC(C(=O)NC2CCCC2)CC1=O (centres unmarked) | -4.04% |
| COc1cc(/C=N/NC(=O)c2ccc(CN3C(=O)c4cccc5cccc3c45)cc2)cc(OC)c1O | 11.2% |
| O=C(COC(=O)/C=C/c1cccc(Br)c1)NCc1ccco1 | 11.7% |
| O=C(N/N=C/c1cccc([N+](=O)[O-])c1)c1cc(-c2ccc3c(c2)OCO3)n[nH]1 | 11% |
| CCOC(=O)CN1N=C(/C=C/c2ccc(C(C)C)cc2)CCC1=O | 9.01% |
| CCn1c(=O)c([N+](=O)[O-])c(NCCN(C)C)c2ccccc21 | 19.4% |
| Cc1ccc(NC(=O)C2=NNC(=O)CC2)cc1F | 10.1% |
| COC(=O)CC1C(=O)NCCN1C(=S)NC(=O)c1ccccc1[N+](=O)[O-] (centres unmarked) | 5.3% |
| COc1ccc(NC(=S)N(CCCN2CCOCC2)Cc2ccco2)cc1 | 2.16% |
| Cc1[nH]c2ccccc2c1C(=O)C(=O)N1c2ccccc2CC1C (centres unmarked) | 2.09% |
| OC[C@H]1OC(O)[C@@H](O)[C@@H](O)[C@@H]1O (some centres unmarked) | 13.2% |
| O=C(NC1(C(F)(F)F)NC(=O)N(C2CCCCC2)C1=O)C1CC1 (centres unmarked) | 12.2% |
| CN(C)c1cc(-c2cccc([N+](=O)[O-])c2)oc(=O)c1Cl | 1.79% |
| COc1cc(S(=O)(=O)n2nnc3ccccc32)c(OC)cc1Cl | 10.6% |
| CCc1c(C)nc(N)n2c(SCC(=O)N3CCCC(C)C3)nnc12 (centres unmarked) | -5.85% |
| COc1cc(OC)cc(-c2nn[nH]n2)c1 | 10.2% |
| Cc1ccc(S(=O)(=O)NC(=O)COc2ccc([N+](=O)[O-])cc2)cc1 | 7.29% |
| COc1ccc(CC(=O)NCC(=O)N/N=C(/C)c2ccco2)cc1 | 5.67% |
| CN(c1ccc(C(=O)Nc2cccc(O)c2)cc1)S(=O)(=O)c1ccccc1 | 7.55% |
| Cc1ccc(F)c(NC(=O)CCc2ccccc2)c1 | 13.5% |
| CC(C)c1ccc(NC(=O)c2ccc(Br)o2)cc1 | 8.71% |

| SMILES | hERG current change (%, negative = inhibition) at 1uM |
| --- | --- |
| O=C(CSc1ccc2c(c1)OCCO2)Nc1cccc(S(=O)(=O)N2CCCCC2)c1 | 12.7% |
| O=C(CSc1nc(=O)n2ccccc2n1)NCc1ccccc1 | 8.87% |
| O=C(CSc1nc2c(cnn2-c2ccccc2)c(=O)[nH]1)c1ccc(Cl)cc1 | 7.01% |
| N=c1c2c(-c3ccccc3)c(-c3ccccc3)oc2ncn1CCN1CCOCC1 | -63.5% |
| CC1CCN(C(=O)c2ccc(S(=O)(=O)Cc3ccccc3F)c([N+](=O)[O-])c2)CC1 | 5.35% |
| O=C1OC(Nc2ccc(F)c([N+](=O)[O-])c2)c2ccccc21 (centres unmarked) | 7.65% |
| COc1cccc(/C=C2\SC(=S)N(C(C)C(=O)NC3C=CS(=O)(=O)C3)C2=O)c1 (centres unmarked) | 11.2% |
| C/C(=N\NC(=O)Cc1ccc(Cl)cc1)c1cccnc1 | 13.4% |
| CCN(CC)CCCNC(=O)N[C@@H](Cc1ccccc1)C(=O)O | 6.72% |
| C[C@@]12C(=O)Nc3ccc(Br)cc3C(=O)N1[C@H]1c3cc(Cl)ccc3OC[C@@H]1[C@@H]2c1ccccc1 | 16.5% |
| Cc1ccc(SCc2[nH]nc3c2C(C(C)C)C(C#N)=C(N)O3)cc1 (centres unmarked) | 15.8% |
| COC(=O)c1ccc(C2C(C(C)=O)=C(C)Nc3ncnn32)cc1 (centres unmarked) | 10.3% |
| CN(CC(=O)Nc1ccc(F)cc1)C(=O)C1CCN(C(=O)Nc2ccccc2)CC1 | 3.54% |
| Cc1ccccc1C(C(=O)NCc1ccccc1)N(Cc1ccco1)C(=O)c1ccccn1 (centres unmarked) | 10.8% |
| C1=CC2c3ccccc3NC(c3ccncc3)C2C1 (centres unmarked) | 5.2% |
| CC(C)N(Cc1ccccc1)C(=O)CN1C(=O)COc2ccc(S(=O)(=O)N3CCCCCC3)cc21 | 13.7% |
| Cn1c(=O)c(-c2ccccc2)nn2c3ccccc3nc12 | 10% |
| O=C(CCCN1C(=O)/C(=C/c2ccc3c(c2)OCO3)SC1=S)Nc1cccc(C(=O)O)c1 | 9.71% |
| COc1ccc(CCNC(=O)CCCCCN2C(=O)c3ccccc3C2=O)cc1OC | -1.78% |
| CCOC(=O)O[C@]1(C(=O)COC(=O)CC)CC[C@H]2[C@@H]3CCC4=CC(=O)C=C[C@]4(C)[C@H]3[C@@H](O)C[C@@]21C | 8.4% |
| COCCNCc1nc2sc(C)c(-c3ccccc3)c2c(=O)[nH]1.O=C(O)C(=O)O | 15.1% |
| O=C(NCCCN1CCCC1=O)c1ccc(S(=O)(=O)Nc2ccccc2F)cc1 | -0.0222% |
| CCC(=O)Nc1ccc(-c2nnc(SCC(=O)NCC3CCCO3)n2C)cc1 (centres unmarked) | 14.4% |

| SMILES | hERG current change (%, negative = inhibition) at 1uM |
| --- | --- |
| N#CCCSCc1ccc(C(=O)O)o1 | 14.5% |
| CCn1cc(C(=O)O)c(=O)c2cc(F)c(N3CCN(C(=S)NC(=O)c4cccc(F)c4)CC3)cc21 | 7.8% |
| Cc1ccc2[nH]c3c(=O)n(CCC4=CCCCC4)cnc3c2c1 | 11% |
| CCC(C)NC(=O)CCS(=O)(=O)c1ccc2c(c1)n(C)c(=O)c(=O)n2C (centres unmarked) | 6.48% |
| Cc1ccc(OCC(=O)Nc2ccc(N3CCN(C(=O)c4ccco4)CC3)cc2)cc1 | -0.667% |
| Cc1ccc(S(=O)(=O)NCc2ccc(C(=O)NC3CC3)cc2)cc1 | 3.97% |
| COc1cccc(NC(=S)NCCN2CCOCC2)c1 | 10.3% |
| Cc1[nH]nc2nc(SCC(=O)NC3CCCCC3)n(-c3ccc(Br)cc3)c(=N)c12 | 13.1% |
| NC(=O)c1cccc2c(=O)oc3ccccc3c12 | 9.01% |
| NC(=O)C1(N2CCCCC2)CCN(C(=S)Nc2cc(F)cc(F)c2)CC1 | 4.85% |
| Cc1ccc2nc3sc(C(=O)N4CCCc5ccccc54)c(N)c3cc2c1 | 8.43% |
| CN1CC(C(=O)c2ccc(Cl)cc2)C(c2ccccc2)C1 (centres unmarked) | 6.78% |
| C/C(CC(=O)Nc1ccc(N(C)C)cc1)=N\NC(=O)c1ccc([N+](=O)[O-])cc1 | 1.72% |
| Cn1ccsc1=NC(=O)c1cccc(C#N)c1 | 13.5% |
| CCNC(=S)SCCOc1ccccc1C | 14.5% |
| CCOc1cc(NC(=S)NCC2CCCO2)c(OCC)cc1NC(=O)c1ccc(OC)cc1 (centres unmarked) | 4.07% |
| CO/N=C/c1c(-c2ccccc2)nn(C)c1Cl | 15.9% |
| O=C(CCn1c(=O)oc2ccccc21)NCc1ccco1 | 13% |
| COc1ccc(CCN2C(=NC(=O)CC(C)C)SC3CS(=O)(=O)CC32)cc1OC (centres unmarked) | 12.7% |
| NS(=O)(=O)c1ccc(N=C2C(=O)Nc3ccccc32)cc1 | 17.4% |
| CC1=NN=C(c2ccc(N)cc2)c2cc3c(cc2C1)OCO3.Cl | 14.6% |
| CC(C)C(=O)O/N=C(\N)c1ccc(Oc2ccc(Cl)cc2)c([N+](=O)[O-])c1 | 10.5% |
| O=C(CSc1nnc2c(n1)[nH]c1ccccc12)NCc1ccccc1F | 4.41% |

| SMILES | hERG current change (%, negative = inhibition) at 1uM |
| --- | --- |
| CCOc1ccc(N2C(=O)CNC2=S)cc1 | 2.76% |
| Cc1ccc(C(=O)NCCSC(C)(C)C)cc1 | 2.44% |
| COC(=O)c1onc(-c2c(OC)cc(OC)cc2OC)c1C(=O)OC | 8.04% |
| CC1CCCC(C)N1/N=C/c1ccccc1C(=O)O (centres unmarked) | 6.19% |
| CSc1nc2ccccc2c(=O)n1Cc1ccc(F)cc1 | 6.61% |
| O=C(Nc1nc(-c2cccc(Br)c2)cs1)Oc1ccccc1 | 11.9% |
| Cc1ccc(C)c(NC(=O)c2cnc3n(c2=O)CCS3)c1 | -14.4% |
| O=C(Nc1ccc(C(=O)O)cc1)Nc1ccc([N+](=O)[O-])cc1 | 16.7% |
| CC(C)c1ccc(NC(=O)CSc2nc(=O)n(CCCN3CCOCC3)c3c2CCCC3)cc1 | -2.46% |
| Cc1ccc(C(=O)NC(Cc2c[nH]c3ccccc23)C(=O)O)cc1 (centres unmarked) | 2.23% |
| CCS(=O)(=O)Nc1cc(C(=O)O)ccc1C | 13.3% |
| CCCn1c(SC(C)C(=O)NCC2CCCO2)nc2sc3c(c2c1=O)CCC3 (centres unmarked) | 3.03% |
| COc1ccc(Cc2nc3ccc(C(=O)N(C)CCO)cc3o2)cc1 | 3% |
| O=C(Nc1nccs1)C1CCCN1S(=O)(=O)c1ccc(Cl)cc1 (centres unmarked) | 17.3% |
| Cc1cc(=O)n2nc(N3CCC(C(=O)NCc4ccc(F)cc4)CC3)sc2n1 | 0.746% |
| CC1CCN(c2ccc([N+](=O)[O-])c(SCCO)c2)CC1 | 8.74% |
| CCN(CC(=O)Nc1c(F)cccc1F)C(=O)c1ccc2ncsc2c1 | 12.3% |
| O=C(NC1CCCCCCC1)c1ccc(Br)o1 | 0.286% |
| N#Cc1ccc(CC(C(=O)O)N2Cc3ccccc3C2=O)cc1 (centres unmarked) | 17.3% |
| Cc1c(Cl)cccc1NC(=O)c1cccc(NC(=O)CCC(=O)O)c1 | -0.51% |
